± gives the standard deviation of the averaged measurements. This is one part of the list.
Tested on: PfAP2-G AP2 domain (GST-tagged)
Experiment: gcPBM binding intensity (ln(normalized median fluorescence intensity)); higher = stronger DNA binding
Procedure, shortened: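 An Agilent 4 × 180k array carrying primer-extended double-stranded 36-bp intergenic genomic probes and negative controls received GST-tagged P. falciparum DNA-binding domains expressed in E. coli, about 25 μg on average, for 1 h. The binding buffer contained 1× PBS, 1% milk, 0.2 mg/ml BSA, 0.5% salmon testes DNA and 0.03% Triton X-100. Binding intensity is the top Masliner-normalised natural-log median intensity across replicate spots of either probe orientation, read after Alexa488 anti-GST antibody staining and a 488 nm scan.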

Sequence | gcPBM binding intensity (ln)
AAAATTATTTTTATGTGTACTTATTTATTATTTATA [XGTACX_site6665] | 11.4 ± 0.86
TTTTATTTTTTCCGACGTACATCCATTATATATAAT [XGTACX_site4469] | 11.5 ± 0.91
AAATGTTAAAATGACAGTACATATATAAAAAAAAAA [XGTACX_site3936] | 10.7 ± 0.35
AAAAAAAACGCACATACACACACACCCATATATATA [CACACA_site9118] | 10.3 ± 0.18
AAAAAAAAAAAAAAGGTGCAAATAAATTAACCTTAT | 10.2 ± 0.22
AAATATTTGGAGAAATGTACATATTATAAATATATT [XGTACX_site6885] | 11 ± 0.57
CTAGGAAATTATATGGGTACTCATATTCATAAAAAA [XGTACX_site1846] | 11.3 ± 0.8
GATGATGTTTATTTGTGTACATATTAATACTTAATA [XGTACX_site1902] | 11.4 ± 0.82
TACTTATGTGCATACCTACACACTTACATATATATA [CACACA_site2975] | 10.2 ± 0.19
TATAAATAAATACATACACACACATACATATATATA [CACACA_site9024] | 10.02 ± 0.085
AATCATATGAAAAATACATGCGCATGGATACCTTTA [TGCATGCA_site224] | 10.1 ± 0.13
AAGAACAGAACGTACACACACATATATATATATATA [CACACA_site3457] | 11.5 ± 0.99
AAAAAAAGAATGTGAACACACACATTGAATATAATT [CACACA_site8341] | 9.98 ± 0.14
AATTATTTACCCTATACACACAAAACCCACTAAAAA [CACACA_site4801] | 10.6 ± 0.46
TTTGTAAGTCTTTGTTGTACTCAATAGAATGAAGAA [XGTACX_site8930] | 11.5 ± 1.1
ATAGGACATGTATCCAGTACATATTTAAAAAAAATA [XGTACX_site88] | 10.9 ± 0.57
GCATATATCAAATATCGTACATTTTTTAAATTAAAA [XGTACX_site3994] | 10.7 ± 0.54
ATAAAATCAAAATATACACACAAGGGGGAAAATCAA [CACACA_site2809] | 10.6 ± 0.54
TTTTCTTTTTTTTATTGTACTTATAAAAATAAATAA [XGTACX_site3498] | 11.4 ± 1
TTTCATTTTTGAAGGTGTACTTAAAATTTATGTAAT [XGTACX_site6671] | 11.5 ± 1.1
AAAATTTATTATCTATATAATAATATGAAACAAAAC [GTGCAC_negctrl_site731] | 9.925 ± 0.049
CATTATAAGAGACACACACACATATATAAATATGTA [CACACA_site6621] | 10.01 ± 0.014

Sequence | gcPBM binding intensity (ln)
AGTAAGAGGCATTAAGCATGCATATTATTATAAGCA [TGCATGCA_site237] | 9.46 ± 0.29
TATTTAAAACTATACACATGCATTATATAAAGATAT [TGCATGCA_site702] | 10 ± 0.13
CTCATTTTGTTAATGGTGCAAAAAAAAAAAAAAAAA | 10.1 ± 0.66
ATGAAAAAAAGACATGCATGTAAATATAAATTGCTT [TGCATGCA_site504] | 9.82 ± 0.24
AATCAACATTTTTTTTGCTATTTTTTTTTTTAATTA [CACACA_negctrl_site891] | 9.49 ± 0.34
TTATAAAATATATATACATGCACAAAATTATAAGTA [TGCATGCA_site294] | 10.1 ± 0.3
AAAAAAACATAAAATACACACAACCTTAAGAATGTA [CACACA_site3293] | 9.895 ± 0.064
ATATATTTCATTTTTGTACACACAACGTTGGAGGGT [CACACA_site8999] | 11.3 ± 0.73
AAAAAAAAAATATATATATATATATAATATATATAT [TGCATGCA_negctrl_site329] | 9.82 ± 0.72
ATATAGGTAATAATAATACACACGGTGAAATATAGA [CACACA_site4040] | 10 ± 0.13
AAAAACTAACTGTATTGTACTCTCTTATAAATTCAC [XGTACX_site8967] | 11.1 ± 0.7
TAAAAAAAAGGAAATACATGCATCTACATATATATA [TGCATGCA_site500] | 9.77 ± 0.042
GACAATATTAAAACATGTACATGCATTTTATGAATA [XGTACX_site553] | 11.2 ± 0.78
TATAATATAAAATATGCACACATTGGAATGGGAGAA [CACACA_site3746] | 10.2 ± 0.26
TATTGTAAAGTGTCATTATTACGTTATATTATATAT [CACACA_negctrl_site98] | 10.01 ± 0.021
AAAATGTTAAATATTAAATATGAAACAAAAAAAAAA [GTGCAC_negctrl_site211] | 9.885 ± 0.092
GTATGATGTGAACATTGTACGAATGAATATATCTAA [XGTACX_site3789] | 10.8 ± 0.55
ATATAAGTATACACATGTACATATTTCTTATGTATA [XGTACX_site2854] | 11.2 ± 0.61
TATAAAGACACGTACACACACTAAGTATATCCAATA [CACACA_site6855] | 11.6 ± 1.2
AAAAAATTTATAAAAGCACACAAAATAAAAAAAAAT [CACACA_site8420] | 10.2 ± 0.29
ATAAGAAATTTCATACGTACATAAATAAATATATAT [XGTACX_site2932] | 11.5 ± 0.92
TATAATTTAAAATACACACACATATATATAATATAT [CACACA_site2000] | 9.95 ± 0.042

— the supplement of paper PMC11417369
